{"source": "the BET-seq Pho4 binding data (Le et al. 2018)", "note": "This is one part of the list. The energies were worked out here from pooled read counts, against the library average; single values are noisy.", "data": [{"molecular_target": "T1, Pho4 (S. cerevisiae) (UniProt P07270)", "T1 sequence": "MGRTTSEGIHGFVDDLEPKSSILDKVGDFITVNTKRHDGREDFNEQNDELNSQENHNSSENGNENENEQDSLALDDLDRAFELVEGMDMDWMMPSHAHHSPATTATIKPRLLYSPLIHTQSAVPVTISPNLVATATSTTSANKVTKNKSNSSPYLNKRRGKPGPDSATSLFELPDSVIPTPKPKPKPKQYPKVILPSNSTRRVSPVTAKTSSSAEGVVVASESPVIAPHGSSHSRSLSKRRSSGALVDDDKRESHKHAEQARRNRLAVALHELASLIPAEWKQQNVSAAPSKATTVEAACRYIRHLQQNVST", "test": "relative binding free energy (BET-seq); higher = weaker binding", "conditions": "reference: library average", "units": {"relative binding free energy": "kcal/mol"}, "values": [{"sequence": "TGGTGCACGTGGTTAC", "relative binding free energy": -0.15}, {"sequence": "TGGGGCACGTGCAGTT", "relative binding free energy": -0.12}, {"sequence": "CGGCGCACGTGGGGTA", "relative binding free energy": -0.28}, {"sequence": "CCTTGCACGTGGGTGG", "relative binding free energy": -0.25}, {"sequence": "TCGTACACGTGGTGGG", "relative binding free energy": 0.06}, {"sequence": "GGCGTCACGTGTAGTA", "relative binding free energy": 0.13}, {"sequence": "TTCTTCACGTGGTGCT", "relative binding free energy": 0.16}, {"sequence": "CGTGTCACGTGGTATA", "relative binding free energy": 0.11}, {"sequence": "ATCTGCACGTGGGGTG", "relative binding free energy": -0.14}, {"sequence": "GGCAGCACGTGGATGT", "relative binding free energy": 0.01}, {"sequence": "GGTCGCACGTGTCCGG", "relative binding free energy": 0.1}, {"sequence": "TTTTTCACGTGTCGGT", "relative binding free energy": 0.4}, {"sequence": "CGTGTCACGTGAAGTT", "relative binding free energy": 0.13}, {"sequence": "AGGATCACGTGAGTGT", "relative binding free energy": 0.51}, {"sequence": "GCGTTCACGTGGGGAA", "relative binding free energy": 0.05}, {"sequence": "GGAGGCACGTGGGGTA", "relative binding free energy": -0.2}, {"sequence": "TATATCACGTGGCGGG", "relative binding free energy": 0}, {"sequence": "GAATCCACGTGGGTGG", "relative binding free energy": -0.11}, {"sequence": "TAGGGCACGTGCGAAG", "relative binding free energy": -0.09}, {"sequence": "AAGTACACGTGCTGTG", "relative binding free energy": -0.04}, {"sequence": "AATACCACGTGTTGGG", "relative binding free energy": 0.09}, {"sequence": "TGTAGCACGTGTCGAT", "relative binding free energy": -0.17}, {"sequence": "GGCTGCACGTGGCTGT", "relative binding free energy": -0.1}, {"sequence": "AGTTACACGTGCTGTT", "relative binding free energy": 0.11}, {"sequence": "TTGTGCACGTGCGCTG", "relative binding free energy": -0.21}, {"sequence": "GGTTACACGTGCGGGA", "relative binding free energy": 0.18}, {"sequence": "GTTATCACGTGTCAAT", "relative binding free energy": 0.18}, {"sequence": "AGTGTCACGTGATAGA", "relative binding free energy": 0.18}, {"sequence": "TGGCGCACGTGTAGTG", "relative binding free energy": 0}, {"sequence": "TGTTGCACGTGTTGCG", "relative binding free energy": -0.02}, {"sequence": "TCGTTCACGTGTATTG", "relative binding free energy": 0.11}, {"sequence": "AGTGTCACGTGGTGTC", "relative binding free energy": -0.02}, {"sequence": "GGGCGCACGTGTGAGG", "relative binding free energy": -0.02}, {"sequence": "GGTCGCACGTGGCTGT", "relative binding free energy": -0.14}, {"sequence": "GAGTGCACGTGGGAGT", "relative binding free energy": -0.01}, {"sequence": "TTTATCACGTGCCTTG", "relative binding free energy": 0.12}, {"sequence": "ATTGTCACGTGGGAAG", "relative binding free energy": -0.05}, {"sequence": "GAGGGCACGTGGCAGG", "relative binding free energy": -0.14}, {"sequence": "GGAGGCACGTGTGGCA", "relative binding free energy": -0.06}, {"sequence": "ACGGTCACGTGTGGGT", "relative binding free energy": 0.15}, {"sequence": "GTCTACACGTGGGAGG", "relative binding free energy": -0.01}, {"sequence": "GGCCTCACGTGAGTGT", "relative binding free energy": 0.31}, {"sequence": "TATATCACGTGTGAGG", "relative binding free energy": 0.24}, {"sequence": "TGTTGCACGTGGCGCG", "relative binding free energy": -0.13}, {"sequence": "TTGTGCACGTGTGACA", "relative binding free energy": 0.03}, {"sequence": "GGATCCACGTGGTGCG", "relative binding free energy": 0.1}, {"sequence": "CTGGGCACGTGGGTTG", "relative binding free energy": -0.22}, {"sequence": "TCCGTCACGTGGTGTT", "relative binding free energy": 0.08}, {"sequence": "ATTGTCACGTGGTGAG", "relative binding free energy": 0.07}, {"sequence": "GGCGGCACGTGGGCTC", "relative binding free energy": -0.08}, {"sequence": "TTTAGCACGTGTTAAA", "relative binding free energy": -0.11}, {"sequence": "GGGGCCACGTGTGTCT", "relative binding free energy": -0.05}, {"sequence": "GTTGTCACGTGTTGTT", "relative binding free energy": 0.22}, {"sequence": "TTTGTCACGTGATTGG", "relative binding free energy": 0.17}, {"sequence": "CTGGGCACGTGGAAAT", "relative binding free energy": 0.1}, {"sequence": "AATGTCACGTGATGGA", "relative binding free energy": 0.29}, {"sequence": "CGTTGCACGTGTCAGG", "relative binding free energy": -0.06}, {"sequence": "GTTAACACGTGAGGGA", "relative binding free energy": 0.17}, {"sequence": "CAAGGCACGTGGGCGT", "relative binding free energy": -0.28}, {"sequence": "GATTACACGTGAGAGG", "relative binding free energy": 0.31}, {"sequence": "CTTGACACGTGTTATT", "relative binding free energy": 0.08}, {"sequence": "GGTCACACGTGGGGTG", "relative binding free energy": -0.06}, {"sequence": "TGTTGCACGTGTGTGC", "relative binding free energy": 0.1}, {"sequence": "ATTAACACGTGATATA", "relative binding free energy": 0.14}, {"sequence": "ATTGTCACGTGTACGA", "relative binding free energy": 0.05}, {"sequence": "TTATGCACGTGGGAAA", "relative binding free energy": 0.13}, {"sequence": "TGGGACACGTGGAAAT", "relative binding free energy": 0.26}, {"sequence": "GAGGGCACGTGGGCGC", "relative binding free energy": -0.28}, {"sequence": "GTCGACACGTGAGGGT", "relative binding free energy": 0.24}, {"sequence": "GAGTACACGTGGGCTT", "relative binding free energy": -0.06}, {"sequence": "AAGTCCACGTGATTTG", "relative binding free energy": 0.29}, {"sequence": "GATTCCACGTGGTGTG", "relative binding free energy": -0.02}, {"sequence": "GCGGGCACGTGAGATA", "relative binding free energy": 0.31}, {"sequence": "TGATACACGTGGGTTC", "relative binding free energy": 0.02}, {"sequence": "ATATTCACGTGCTTTA", "relative binding free energy": 0.12}, {"sequence": "TTGCGCACGTGGGCTT", "relative binding free energy": -0.28}, {"sequence": "GGTTTCACGTGAAGAA", "relative binding free energy": 0.5}, {"sequence": "AGTGGCACGTGTGAGC", "relative binding free energy": 0.06}, {"sequence": "TTGTGCACGTGTCTAT", "relative binding free energy": -0.08}, {"sequence": "ATTAGCACGTGTACGT", "relative binding free energy": -0.03}, {"sequence": "CTTGTCACGTGGGGTT", "relative binding free energy": 0.03}, {"sequence": "GTTTGCACGTGTATGG", "relative binding free energy": 0.08}, {"sequence": "TCTATCACGTGGATGT", "relative binding free energy": 0.05}, {"sequence": "TATTACACGTGTTCGG", "relative binding free energy": 0.15}, {"sequence": "TTGTCCACGTGCAGTT", "relative binding free energy": 0.03}, {"sequence": "GGGTCCACGTGGGAAA", "relative binding free energy": 0.15}, {"sequence": "ATTTACACGTGGCGTG", "relative binding free energy": -0.03}, {"sequence": "ATACACACGTGTGGGG", "relative binding free energy": 0.03}, {"sequence": "GTTTCCACGTGTTAGG", "relative binding free energy": 0.17}, {"sequence": "AAGTACACGTGACGGG", "relative binding free energy": 0.25}, {"sequence": "TAGGTCACGTGTTGCA", "relative binding free energy": 0.09}, {"sequence": "TGTGACACGTGATTGA", "relative binding free energy": 0.19}, {"sequence": "GTTATCACGTGGGAGT", "relative binding free energy": 0.13}, {"sequence": "ATTTACACGTGGGGAC", "relative binding free energy": -0.04}, {"sequence": "GGGCGCACGTGCTGGT", "relative binding free energy": -0.13}, {"sequence": "TTTAGCACGTGGTACT", "relative binding free energy": -0.23}, {"sequence": "GATCTCACGTGTGGTT", "relative binding free energy": 0.42}, {"sequence": "ACAAGCACGTGTGGGT", "relative binding free energy": -0.04}, {"sequence": "GAGTTCACGTGAGGAT", "relative binding free energy": 0.61}, {"sequence": "TCGTGCACGTGCCGGG", "relative binding free energy": -0.08}, {"sequence": "GGAGGCACGTGTCGCG", "relative binding free energy": -0.15}, {"sequence": "TATGACACGTGTAGGC", "relative binding free energy": 0.07}, {"sequence": "GTGGGCACGTGTGCGT", "relative binding free energy": -0.07}, {"sequence": "ATAAGCACGTGAGGTT", "relative binding free energy": 0.16}, {"sequence": "CTGGGCACGTGGTTGG", "relative binding free energy": -0.07}, {"sequence": "TTAGGCACGTGAAGGA", "relative binding free energy": 0.14}, {"sequence": "TTTGTCACGTGAGGCC", "relative binding free energy": 0.33}, {"sequence": "ATCAGCACGTGTGTTG", "relative binding free energy": -0.14}, {"sequence": "ATGGGCACGTGGGAGT", "relative binding free energy": -0.16}, {"sequence": "TTTCGCACGTGCGGCG", "relative binding free energy": 0.09}, {"sequence": "TGATTCACGTGTTCAG", "relative binding free energy": 0.32}, {"sequence": "TGTTGCACGTGAGCTG", "relative binding free energy": 0.18}, {"sequence": "TGCTGCACGTGGGTAT", "relative binding free energy": -0.12}, {"sequence": "ATAGGCACGTGCTTGG", "relative binding free energy": -0.26}, {"sequence": "TTAGTCACGTGGCTAT", "relative binding free energy": -0.06}]}]}
